Experimental data reported in US20220403048A1, “BINDING MOLECULES TO ARGINASE II [ARG2]” (Cancer Research Technology Limited, priority 2019, published 2022).

Legend:
[1] = biological target: T1, ARG2 (Homo sapiens, UniProt P78540); test: T cell proliferation assay (BrdU, 72 hours) with exogenous ARG2; type: cell-based; parameters: human ARG2 (aa23-354); His10 (C); made in house; host or cells: E. coli BL21 (DE3)
T1 sequence (P78540 23-354): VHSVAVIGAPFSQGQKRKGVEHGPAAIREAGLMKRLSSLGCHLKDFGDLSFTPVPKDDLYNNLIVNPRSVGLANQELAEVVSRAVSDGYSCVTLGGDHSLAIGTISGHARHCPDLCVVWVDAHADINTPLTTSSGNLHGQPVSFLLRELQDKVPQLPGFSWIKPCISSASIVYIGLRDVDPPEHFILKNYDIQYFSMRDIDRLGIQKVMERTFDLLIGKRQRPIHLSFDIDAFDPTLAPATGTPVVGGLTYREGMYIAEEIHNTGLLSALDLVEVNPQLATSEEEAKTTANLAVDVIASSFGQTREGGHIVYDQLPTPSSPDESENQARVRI
Method: This assay served to provide in vitro evidence of functional efficacy for each antibody.
Briefly, Leukocyte cones (NHS Blood and Transplant, Watford, UK) underwent Ficoll Plaque (GE, Sweden; Cat: 17-1440-02) gradient separation, PBMC's were extracted and pan T cell population isolated by negative selection using the Human T Cell Enrichment Kit (Stemcell Technologies, France; Cat: 19051) according to the manufacturer's instructions.
40000 cells/well were seeded in complete growth media (RMPI 1640, 5% Human Serum Albumin) into a 96 well clear TC treated microplate (Greiner-Bio One, Germany; Cat: 655180). T Cells were activated by the addition of ImmunoCult CD3/CD28 (Stemcell Technologies, France; Cat: 10971) at a dilution of 1:40 directly into wells and the plate incubated 37° C., 5% CO2 for 45 minutes.
To determine EC50's of test antibodies, a dilution series was created in sterile TBS at 8× the final assay concentration was added to the assay plate containing cells. Plate was incubated for 30 minutes at 37° C., 5% CO2.
ARG2 was added to relevant wells of the plate at a final concentration of 15 μg/ml. The equivalent volume of ARG2 vehicle and test antibody vehicle was added to relevant control wells. […]
Calculated data was expressed as % of control (Equation 3) and graphical plots were constructed using a four parameter fit and EC50's determined using model 205 in XLFit (IDBS, UK). […]

[2] = biological target: T2, monomeric ARG2 (Homo sapiens, UniProt P78540, E275Q); test: Human monomeric ARG2 enzyme inhibition assay; type: biochemical; conditions: purified recombinant human IgG1, FIG. 5
T2 construct: human ARG2 (aa23-354); His10 (C); made in house; host or cells: E. coli
T2 sequence (P78540 23-354 E275Q): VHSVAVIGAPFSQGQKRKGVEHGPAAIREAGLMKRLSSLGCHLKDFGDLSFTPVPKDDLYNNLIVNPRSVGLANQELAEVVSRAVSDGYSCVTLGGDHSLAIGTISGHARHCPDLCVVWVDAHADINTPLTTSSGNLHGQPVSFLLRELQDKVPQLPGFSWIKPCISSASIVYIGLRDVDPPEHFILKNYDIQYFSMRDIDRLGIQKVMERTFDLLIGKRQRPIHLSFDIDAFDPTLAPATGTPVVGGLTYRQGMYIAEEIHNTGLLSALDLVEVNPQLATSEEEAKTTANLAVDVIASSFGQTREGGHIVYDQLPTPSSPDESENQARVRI
Method: ARG2 specific recombinant IgG1 were screened for their ability to inhibit enzymatic activity of monomeric ARG2. In this assay, the ability of ARG2 specific recombinant IgG1 to inhibit the enzymatic activity of monomeric ARG2 was determined by measuring the production of urea, the product of L-arginine turnover by monomeric ARG2.
IC50 values were determined by testing a dilution series of the ARG2 specific recombinant IgG1, prepared in TBS.
10 μl of ARG2 specific recombinant IgG1 (dilution series) were added to a Greiner Bio-One® 384 well assay plate (Greiner Bio-one, UK; cat: 781901). […]
Urea was detected by the simultaneous addition of equal volumes of O-Phthaldialdehyde (1.5 mM O-Phthaldialdehyde, 7% H2SO4, 0.03% Brij L23) and N-(1-Napthyl)ethylenediamine (1.66 mM N-(1-Napthyl)ethylenediamine, 81 mM Boric acid, 21% H2SO4, 0.03% Brij L23) followed by an 18 minute incubation at room temperature before the colorimetric product was quantified on the Pherastar by measuring absorbance at 505 nm.
ARG2 specific recombinant IgG1 were tested alongside N-Hydroxyl-L-Arginine (a small molecule competitive inhibitor of ARG2) as a positive control and NIP228 (irrelevant isotype control antibody) as a negative control. Data points were plotted and IC50 values determined using a four parameter fit in GraphPad Prism (FIG. 5).

- Maximum % Proliferation ([1]; In Presence of rhARG2, NHLA value at 0.444 mM): 59%
- EC50 ([1]; In Presence of rhARG2, cell without unit): 971 nM
- inhibition of the activity of human monomeric ARG2 [2]: inhibited
B1: C0020187: anti-ARG2 antibody, parent lead isolation clone, VH SEQ ID NO: 12, VL SEQ ID NO: 17 (antibody, listed as Homo sapiens, V domains shown)
VH: [about 100 residues not given here]LRADLGLYMDLWGRGTLVTVSS
VL: QSVLTQPPSVSAAPGQKVTISCSGSSSNIGNHYVSWYQQLPGTAPKLLIYDNSERPSGIPDRFSGSKSGTSATLGITGLQTGDEADYYCGTWDSSLSALVFGGGTKLTVL
modifications: C0020187
